This is an account of results in PubChem BioAssay AID1508642 (National Center for Advancing Translational Sciences (NCATS), 2021).

About 200 (0.47%) of roughly 43,000 compounds were called active. Roughly 12% stayed inconclusive and do not appear here. Calls follow the shape of the dose curve; as a rule, active = well fitted cell-killing curve with a large enough effect; inconclusive = small, poorly fitted or top-dose-only effect, or effect the other way; inactive = flat fitted curve, though single readings scatter. Some of the results follow.
% is scaled to controls: 0 for no effect and ±100 for the full control effect.

The assay in a line: Cell viability qHTS assay in S16 Pmp22-F2sN cells. Also: nearly all actives have a fitted effect of over 65% in size. The settings on record: S16 Pmp22-F2sN Schwann cells (luciferase reporters placed in the Pmp22 gene) viability, CellTiter-Glo, 24 h; series mostly up to 57.5 µM; activity change, negative = cytotoxicity: at the top concentration. The method in brief:
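Seed 500-1,000 S16 Pmp22-F2sN cells per well in phenol-red-free DMEM with 10% heat-inactivated FBS; pin-add 23 nL compound; incubate 24 h at 37C; add CellTiter-Glo, wait 15 min protected from light; read luminescence.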
Background: Quantitative high-throughput screening tests each substance at several concentrations.
For `Cc1ccccc1C(=O)OCc1cc(=O)n2nc(C3CCCCC3)sc2n1`, the “activity change, negative = cytotoxicity” value was inactive: -23.3%.

As for `Cc1nnc2c(N3CCN(c4ccc(F)cc4)CC3)nc3ccc(C(=O)c4ccccc4)cc3n12`, the “activity change, negative = cytotoxicity” value was inactive: -2.09%.

Regarding `O=C(CN1C(=O)C2(SCC(=O)N2c2cccc(F)c2)c2ccccc21)NCCc1ccccc1` (stereo unspecified), the “activity change, negative = cytotoxicity” value was inactive: -17.9%.

Consider `O=C(NCCc1csc(-c2cccnc2)n1)c1ccccc1`, for which the “activity change, negative = cytotoxicity” value was inactive: -1.65%.

Regarding `CCOC(=O)c1cnc(N2CCN(c3cccc(C)c3C)CC2)c2ccccc12`, the “activity change, negative = cytotoxicity” value is inactive: 2.87%.

Turning to `Cc1cccc(C(=O)NC2(C(F)(F)F)N=C(c3ccccc3)N(C3CCCCC3)C2=O)c1` (stereo unspecified), the “activity change, negative = cytotoxicity” value was inactive: 4.78%.

For the molecule `COc1ccc(-c2onc(C)c2C)cc1S(=O)(=O)Nc1cccc(C#N)c1`, the “activity change, negative = cytotoxicity” value is inactive: -20.1%.

Take `O=C(NCCc1ccc(Cl)cc1)c1ccc2c(c1)nc1n2CCOC1`: the “activity change, negative = cytotoxicity” value is inactive: 17.7%.

On to `CCOC(=O)N1CCc2c(sc3c2c(=O)n(-c2ccc(F)cc2)c(=O)n3CC(=O)c2ccc(Cl)cc2)C1`, for which the “activity change, negative = cytotoxicity” value is inactive: 1.66%.

On to `CC(=O)C1=C(c2ccc(F)cc2)N(C(C)=O)n2c(nnc2C2CCCCC2)S1`, for which the “activity change, negative = cytotoxicity” value is inactive: -18.1%.

For `Cc1ccc(NC(=O)CSc2nc(-c3cccs3)nc3cc(=O)[nH]n23)cc1C`, the “activity change, negative = cytotoxicity” value is inactive: -3.83%.

With `CCOc1ccccc1CN1CCc2nc(N3CCN(C)CC3)ncc2C1`, the “activity change, negative = cytotoxicity” value was inactive: 1.59%.

Take `O=C(Cn1ncc2c3ccccc3n(Cc3cccc(Cl)c3)c2c1=O)NCCCN1CCCCC1`: the “activity change, negative = cytotoxicity” value is inactive: -0.799%.

For `CCOCCCNc1nc2c(S(=O)(=O)c3ccc(CC)cc3)nnn2c2ccc(Cl)cc12`, the “activity change, negative = cytotoxicity” value was inactive: 4.35%.

For the molecule `Cc1ccc(CNC(=O)Cn2c(=O)cc(C)c3c(C)nn(-c4cccc(F)c4)c32)cc1`, the “activity change, negative = cytotoxicity” value was inactive: -0.446%.

For the molecule `CCOc1ccc(-c2cc(C(=O)NC(C)c3ccccc3)c3ccccc3n2)cc1` (stereo unspecified), the “activity change, negative = cytotoxicity” value was inactive: 0.159%.

For `COc1ccc(COC(=O)C2=C(C)NC(=O)CC2c2cccc(Cl)c2Cl)cc1` (stereo unspecified), the “activity change, negative = cytotoxicity” value was inactive: 0.732%.

Regarding `CN1C(C(=O)c2ccccc2)=C(NC(=O)c2ccc(F)cc2)c2ccccc2S1(=O)=O`, the “activity change, negative = cytotoxicity” value was inactive: 5.08%.

For the molecule `CCN(CC)c1ccc(NC(=O)CN2CCN(c3ccccc3OC)CC2)cc1`, the “activity change, negative = cytotoxicity” value is inactive: 6.04%.

For `Oc1c(C(c2ccccc2)N2CCOCC2)sc2nc(-c3ccco3)nn12` (stereo unspecified), the “activity change, negative = cytotoxicity” value was inactive: -2.24%.

Regarding `CCOC(=O)c1cc(C)n(CC2CCC(C(=O)Nc3cccc(Cl)c3)CC2)c1C` (stereo unspecified), the “activity change, negative = cytotoxicity” value was inactive: -14.2%.

As to `Nc1c(C(=O)Nc2cccc(F)c2)nnn1-c1cccc(C(F)(F)F)c1`, the “activity change, negative = cytotoxicity” value is inactive: -1.71%.

With `Cc1cc(C)cc(NC(=O)c2sc3nc4n(c(=O)c3c2C)N=C(c2ccccc2)CS4)c1`, the “activity change, negative = cytotoxicity” value is inactive: -0.807%.

As to `COc1ccc(C2=C(C)C(=O)N(Cc3ccc(C(=O)NC(C)c4ccccc4)cc3)S2(=O)=O)cc1` (stereo unspecified), the “activity change, negative = cytotoxicity” value is inactive: 0.801%.

Turning to `CCOc1ccc(N2CC(c3nc4ccccc4n3CCCCOc3ccc(OC)cc3)CC2=O)cc1` (stereo unspecified), the “activity change, negative = cytotoxicity” value was inactive: -7.82%.

Consider `Cc1cc(=O)n2nc(N3CCC(C(=O)Nc4c(C)cccc4C)CC3)sc2n1`, for which the “activity change, negative = cytotoxicity” value was inactive: 13.9%.

Consider `Cc1cccc(OC(C)C(=O)Nc2nonc2-c2ccc(Br)cc2)c1C` (stereo unspecified), for which the “activity change, negative = cytotoxicity” value was inactive: -13.5%.

As to `O=C(NC1CCCCCC1)C1c2ccccc2C(=O)N1Cc1ccc(F)cc1` (stereo unspecified), the “activity change, negative = cytotoxicity” value was inactive: -5.64%.

On to `COc1ccc(CNC(=O)CN2C(=O)CSc3ccc(S(=O)(=O)N(C)C)cc32)cc1`, for which the “activity change, negative = cytotoxicity” value was inactive: 8.81%.

Consider `CC1CCN(S(=O)(=O)c2cc3c4c(c2)C(C)C(=O)N4CCC3)CC1` (stereo unspecified), for which the “activity change, negative = cytotoxicity” value was inactive: -5.99%.

On to `Cc1cccc(N2C(=O)CSC23C(=O)N(CC(=O)Nc2cccc(Cl)c2)c2ccccc23)c1` (stereo unspecified), for which the “activity change, negative = cytotoxicity” value is inactive: -16.5%.

`COc1ccc(OC)c(CNC(=O)c2ccc3nc(C(C)C)oc3c2)c1`: the “activity change, negative = cytotoxicity” value is inactive: -3.59%.

On to `COc1cc(OC)c(NC(=O)c2c(N3CCCC3=O)c3cc(C)ccc3n2C)cc1Cl`, for which the “activity change, negative = cytotoxicity” value is inactive: 7.04%.

Consider `CC(C)Oc1ccc(CNC(=O)c2ccc3c(c2)nc2n3CCCCC2)cc1`, for which the “activity change, negative = cytotoxicity” value was inactive: -4.68%.

`CCOc1ccccc1NC(=O)Cn1ncc2c([nH]c3ccccc32)c1=O`: the “activity change, negative = cytotoxicity” value is inactive: 0.776%.

`Cc1ccccc1OCC(=O)Nc1nnc(S(=O)(=O)N2CCCC2)s1`: the “activity change, negative = cytotoxicity” value is inactive: 1.19%.

In the case of `CCc1c(C)sc2c1CCN(C(=O)Nc1ccccc1C(=O)OC)C2c1ccc(OC)cc1` (stereo unspecified), the “activity change, negative = cytotoxicity” value was inactive: 20%.

For the molecule `COc1ccc(OC)c(C2Nc3c(C)cc(C)cc3-c3cc(C)nn32)c1` (stereo unspecified), the “activity change, negative = cytotoxicity” value is inactive: -2.88%.

In the case of `Cc1ccc(NS(=O)(=O)c2ccc3c(c2)CC(=O)N3)cc1Cl`, the “activity change, negative = cytotoxicity” value was inactive: 2.07%.

Take `Cc1ccc(-c2cc3ncc(C(=O)c4cc(Cl)c(C)cc4O)cn3n2)cc1`: the “activity change, negative = cytotoxicity” value is inactive: 12.3%.

On to `Cc1ccc(Cl)cc1NC(=O)C(Cc1ccccc1)NS(=O)(=O)c1cccc2nsnc12` (stereo unspecified), for which the “activity change, negative = cytotoxicity” value is inactive: 7.71%.

In the case of `O=C(NCc1ccc(Cl)cc1)C1=Cc2cc(Br)ccc2OC1`, the “activity change, negative = cytotoxicity” value was inactive: 2.26%.

With `CCOc1ccc(NC(=O)CN2C(=O)C(c3ccc(Cl)cc3)=NC2(C)C)cc1`, the “activity change, negative = cytotoxicity” value is inactive: 8.41%.

As to `CCC(=O)N1CCc2cc(Br)cc(S(=O)(=O)N3CCCC(C(=O)Nc4cc(C)ccc4OC)C3)c21` (stereo unspecified), the “activity change, negative = cytotoxicity” value was inactive: 10.2%.

On to `CCn1c(=O)cc(OCC(=O)N(C)c2ccc(OC)cc2)c2ccccc21`, for which the “activity change, negative = cytotoxicity” value is inactive: -17%.

As to `CC(C)c1ccc(C2=CC(c3cccc(Cl)c3)n3c(nc4ccccc43)N2)cc1` (stereo unspecified), the “activity change, negative = cytotoxicity” value was inactive: -19.3%.

With `Cc1ccc(Cl)cc1N1CCN(C(=O)c2cc3ccc4cccnc4c3[nH]2)CC1`, the “activity change, negative = cytotoxicity” value is inactive: -10.6%.

Turning to `Cc1nc2cccnc2n1-c1cccc(C(=O)N2CCN(c3cccc(Cl)c3)CC2)c1`, the “activity change, negative = cytotoxicity” value is inactive: -15.5%.

As to `COc1ccc(-c2nnc(SCC(=O)NCCc3ccc(OC)c(OC)c3)nc2-c2ccc(OC)cc2)cc1`, the “activity change, negative = cytotoxicity” value was inactive: -4.55%.

On to `Cc1ccc(C)c(N2CCN(S(=O)(=O)c3cc(-c4cc(C)no4)ccc3C)CC2)c1`, for which the “activity change, negative = cytotoxicity” value was inactive: -9.14%.

Regarding `CSc1ccc(CCNC(=O)c2cc(C)nc3c2c(C)nn3-c2ccccc2)cc1`, the “activity change, negative = cytotoxicity” value is inactive: -5.98%.

With `CC1=Nc2cc(C(=O)NCc3ccccc3Cl)ccc2Sc2c(C)ccc(C)c21`, the “activity change, negative = cytotoxicity” value was inactive: 0.212%.

As to `Cc1cc(C)c(NC(=O)Cn2nc(-c3ccncc3)ccc2=O)c(C)c1`, the “activity change, negative = cytotoxicity” value is inactive: -26%.

For the molecule `CCCn1c(=O)n(-c2ccccc2Cl)c(=O)c2sc3ccccc3c21`, the “activity change, negative = cytotoxicity” value is inactive: 12.8%.

Turning to `O=C(CN1C(=O)C(c2ccc(F)cc2)=NC12CCCCCC2)Nc1ccccc1Cl`, the “activity change, negative = cytotoxicity” value was inactive: 10.3%.

For `Cc1nc2c(-c3ccc(F)cc3)c(C)nn2c(C)c1CCC(=O)N1CCN(c2ccccc2)CC1`, the “activity change, negative = cytotoxicity” value is inactive: -1.46%.

On to `CCCCn1c(SCC(=O)c2ccccc2)nc2c(sc3ccccc32)c1=O`, for which the “activity change, negative = cytotoxicity” value is inactive: -1.19%.

Consider `CCN(C(=O)Cn1nnc2sc3c(c2c1=O)CCC(C(C)(C)C)C3)c1cccc(C)c1` (stereo unspecified), for which the “activity change, negative = cytotoxicity” value was inactive: 0.437%.

`Cc1ccc(-n2nc3ccc(NC(=O)COc4ccccc4C)cc3n2)cc1`: the “activity change, negative = cytotoxicity” value is inactive: 2.11%.

Regarding `CC(=O)c1ccc(N2CCN(C(=O)C3CCCN(S(=O)(=O)c4ccc(Br)s4)C3)CC2)cc1` (stereo unspecified), the “activity change, negative = cytotoxicity” value was inactive: -25.5%.

In the case of `COc1cc(CCC(=O)NCc2ccc3c(c2)CCN3C(=O)c2ccccc2)cc(OC)c1OC`, the “activity change, negative = cytotoxicity” value is inactive: -20.7%.
